# Results: the supplement of paper PMC8728848
# The list shows a part of the results.
# B1: Epa3 (Candida glabrata), Q6VBI8_CANGB (protein)
# chain: MGSSHHHHHHSSGLVPRGSHMNDLGFSLFEKRELSSQNPFGYPIGCSPQDVAIIPGLTMELYSYPIVSGTPPNCYDASYVDPEYPRTGYLKRKMVGKSTGVTGNLNYKYSVEKACMVKYGNLPAGYNYNEPLTVSNFTMILYGYFKAQTTGLHTFFVNADDLLYINFGAGNAFDCCKREDSKTKLGEYVAYDIWHVDSSKNKVSLFLEKDLYYPIRMFFNNIGKDSSLDLSFSVNGATDQISDFSGYLYSVPDQPDTCPAHIGYDTTCR
# Key:
# Experiment in all cases: glycan array binding signal (z-score within array); higher = stronger binding
# Conditions in all cases: glycan notation: IUPAC condensed, linker removed
# [1] = target: Fuc(a1-2)[GalNAc(a1-3)]Gal(b1-3)GlcNAc(b1-3)GalNAc
# Outline: (§1)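 Glycan array data came from 3228 arrays in the Consortium for Functional Glycomics database, and only arrays with an available protein sequence were kept. Glycan names were put into IUPAC-condensed notation, and columns mapping to the same glycan were averaged. The binding signal is a within-array Z-score, averaged across arrays of one protein sequence run at different concentrations or buffers and across linkers. A negative Z-score can be read as non-binding.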
# [2] = target: Fuc(a1-2)[GalNAc(a1-3)]Gal(b1-3)GlcNAc(b1-6)GalNAc
# Outline: as §1
# [3] = target: Fuc(a1-2)[GalNAc(a1-3)]Gal(b1-4)Glc
# Outline: as §1
# [4] = target: Fuc(a1-2)[GalNAc(a1-3)]Gal(b1-4)GlcNAc
# Outline: as §1
# [5] = target: Fuc(a1-2)[GalNAc(a1-3)]Gal(b1-4)GlcNAc(b1-2)Man
# Outline: as §1
# [6] = target: Fuc(a1-2)[GalNAc(a1-3)]Gal(b1-4)GlcNAc(b1-2)Man(a1-3)[Fuc(a1-2)[GalNAc(a1-3)]Gal(b1-4)GlcNAc(b1-2)Man(a1-6)]Man(b1-4)GlcNAc(b1-4)GlcNAc
# Outline: as §1
# [7] = target: Fuc(a1-2)[GalNAc(a1-3)]Gal(b1-4)GlcNAc(b1-2)Man(a1-3)[Fuc(a1-2)[GalNAc(a1-3)]Gal(b1-4)GlcNAc(b1-2)Man(a1-6)]Man(b1-4)GlcNAc(b1-4)[Fuc(a1-6)]GlcNAc
# Outline: as §1
# [8] = target: Fuc(a1-2)[GalNAc(a1-3)]Gal(b1-4)GlcNAc(b1-3)Gal(b1-4)GlcNAc
# Outline: as §1
# [9] = target: Fuc(a1-2)[GalNAc(a1-3)]Gal(b1-4)GlcNAc(b1-3)Gal(b1-4)GlcNAc(b1-3)Gal(b1-4)GlcNAc
# Outline: as §1
# [10] = target: Fuc(a1-2)[GalNAc(a1-3)]Gal(b1-4)GlcNAc(b1-3)GalNAc
# Outline: as §1
# [11] = target: Fuc(a1-2)[GalNAc(a1-3)]Gal(b1-4)GlcNAc(b1-3)[Fuc(a1-2)[GalNAc(a1-3)]Gal(b1-4)GlcNAc(b1-6)]GalNAc
# Outline: as §1
# [12] = target: Fuc(a1-2)[GalNAc(a1-3)]Gal(b1-4)GlcNAc(b1-6)GalNAc
# Outline: as §1
# [13] = target: Fuc(a1-2)[GalNAc(a1-3)]Gal(b1-4)[Fuc(a1-3)]GlcNAc
# Outline: as §1
# [14] = target: Fuc(a1-2)[GalNAc(a1-3)]Gal(b1-4)[Fuc(a1-3)]GlcNAc(b1-3)GalNAc
# Outline: as §1
# [15] = target: Fuc(a1-2)[GalNAc(a1-4)]Gal(b1-4)GlcNAc
# Outline: as §1
# [16] = target: Fuc(a1-2)[GalNAc(b1-3)]Gal
# Outline: as §1
# Fuc(a1-3)GlcNAc = target: Fuc(a1-3)GlcNAc
# Outline: as §1
# [17] = target: Fuc(a1-3)[Gal(b1-4)]Glc6S
# Outline: as §1
# [18] = target: Fuc(a1-3)[Gal(b1-4)]GlcNAc
# Outline: as §1
# [19] = target: Fuc(a1-3)[Gal(b1-4)]GlcNAc(b1-2)Man
# Outline: as §1
# [20] = target: Fuc(a1-3)[Gal(b1-4)]GlcNAc(b1-2)Man(a1-3)[Fuc(a1-3)[Gal(b1-4)]GlcNAc(b1-2)Man(a1-6)]Man(b1-4)GlcNAc(b1-4)GlcNAc
# Outline: as §1
# [21] = target: Fuc(a1-3)[Gal(b1-4)]GlcNAc(b1-2)Man(a1-3)[Fuc(a1-3)[Gal(b1-4)]GlcNAc(b1-2)Man(a1-6)]Man(b1-4)GlcNAc(b1-4)[Fuc(a1-6)]GlcNAc
# Outline: as §1
# [22] = target: Fuc(a1-3)[Gal(b1-4)]GlcNAc(b1-3)Gal(b1-3)[Fuc(a1-4)]GlcNAc
# Outline: as §1
# [23] = target: Fuc(a1-3)[Gal(b1-4)]GlcNAc(b1-3)Gal(b1-4)[Fuc(a1-3)]GlcNAc
# Outline: as §1
# [24] = target: Fuc(a1-3)[Gal(b1-4)]GlcNAc(b1-3)Gal(b1-4)[Fuc(a1-3)]GlcNAc(b1-3)Gal(b1-4)[Fuc(a1-3)]GlcNAc
# Outline: as §1
# [25] = target: Fuc(a1-3)[Gal(b1-4)]GlcNAc(b1-3)GalNAc
# Outline: as §1
# [26] = target: Fuc(a1-3)[Gal(b1-4)]GlcNAc(b1-6)GalNAc
# Outline: as §1
# [27] = target: Fuc(a1-3)[Gal(b1-4)]GlcNAc(b1-6)[Gal(b1-3)GlcNAc(b1-3)]Gal(b1-4)Glc
# Outline: as §1
# [28] = target: Fuc(a1-3)[Gal(b1-4)]GlcNAc6S
# Outline: as §1
# [29] = target: Fuc(a1-3)[Gal3S(b1-4)]Glc
# Outline: as §1
# [30] = target: Fuc(a1-3)[Gal3S(b1-4)]GlcNAc
# Outline: as §1
# [31] = target: Fuc(a1-3)[Gal3S(b1-4)]GlcNAc6S
# Outline: as §1
# [32] = target: Fuc(a1-3)[GalNAc(b1-4)]GlcNAc
# Outline: as §1
# [33] = target: Fuc(a1-3)[GalNAc(b1-4)]GlcNAc6S
# Outline: as §1
# Fuc(a1-4)GlcNAc = target: Fuc(a1-4)GlcNAc
# Outline: as §1
# Fuc(b1-3)GlcNAc = target: Fuc(b1-3)GlcNAc
# Outline: as §1
# Gal(a1-2)Gal = target: Gal(a1-2)Gal
# Outline: as §1
# Gal(a1-3)Gal = target: Gal(a1-3)Gal
# Outline: as §1
# Gal(a1-3)Gal(b1-3)GlcNAc = target: Gal(a1-3)Gal(b1-3)GlcNAc
# Outline: as §1
# [34] = target: Gal(a1-3)Gal(b1-3)GlcNAc(b1-2)Man
# Outline: as §1
# [35] = target: Gal(a1-3)Gal(b1-3)GlcNAc(b1-2)Man(a1-3)[Gal(a1-3)Gal(b1-3)GlcNAc(b1-2)Man(a1-6)]Man(b1-4)GlcNAc(b1-4)GlcNAc
# Outline: as §1
# [36] = target: Gal(a1-3)Gal(b1-3)GlcNAc(b1-3)GalNAc
# Outline: as §1
# [37] = target: Gal(a1-3)Gal(b1-3)GlcNAc(b1-6)GalNAc
# Outline: as §1
# [38] = target: Gal(a1-3)Gal(b1-3)[Fuc(a1-4)]GlcNAc(b1-2)Man(a1-3)[Gal(a1-3)Gal(b1-3)[Fuc(a1-4)]GlcNAc(b1-2)Man(a1-6)]Man(b1-4)GlcNAc(b1-4)GlcNAc
# Outline: as §1
# Gal(a1-3)Gal(b1-4)Glc = target: Gal(a1-3)Gal(b1-4)Glc
# Outline: as §1
binder,measurement,setting,value
B1,glycan array binding signal (z-score),[1],-0.088
same,glycan array binding signal (z-score),[2],-0.284
same,glycan array binding signal (z-score),[3],-0.291
same,glycan array binding signal (z-score),[4],-0.312
same,glycan array binding signal (z-score),[5],-0.275
same,glycan array binding signal (z-score),[6],-0.279
same,glycan array binding signal (z-score),[7],-0.254
same,glycan array binding signal (z-score),[8],-0.246
same,glycan array binding signal (z-score),[9],-0.236
same,glycan array binding signal (z-score),[10],-0.304
same,glycan array binding signal (z-score),[11],-0.386
same,glycan array binding signal (z-score),[12],-0.24
same,glycan array binding signal (z-score),[13],0.011
same,glycan array binding signal (z-score),[14],2.94
same,glycan array binding signal (z-score),[15],-0.177
same,glycan array binding signal (z-score),[16],-0.012
same,glycan array binding signal (z-score),Fuc(a1-3)GlcNAc,-0.248
same,glycan array binding signal (z-score),[17],-0.095
same,glycan array binding signal (z-score),[18],0.024
same,glycan array binding signal (z-score),[19],0.065
same,glycan array binding signal (z-score),[20],-0.046
same,glycan array binding signal (z-score),[21],-0.158
same,glycan array binding signal (z-score),[22],-0.24
same,glycan array binding signal (z-score),[23],-0.032
same,glycan array binding signal (z-score),[24],-0.271
same,glycan array binding signal (z-score),[25],0.135
same,glycan array binding signal (z-score),[26],0.221
same,glycan array binding signal (z-score),[27],-0.151
same,glycan array binding signal (z-score),[28],0.045
same,glycan array binding signal (z-score),[29],-0.048
same,glycan array binding signal (z-score),[30],-0.151
same,glycan array binding signal (z-score),[31],0.406
same,glycan array binding signal (z-score),[32],0.843
same,glycan array binding signal (z-score),[33],-0.067
same,glycan array binding signal (z-score),Fuc(a1-4)GlcNAc,-0.181
same,glycan array binding signal (z-score),Fuc(b1-3)GlcNAc,-0.16
same,glycan array binding signal (z-score),Gal(a1-2)Gal,-0.254
same,glycan array binding signal (z-score),Gal(a1-3)Gal,-0.059
same,glycan array binding signal (z-score),Gal(a1-3)Gal(b1-3)GlcNAc,-0.295
same,glycan array binding signal (z-score),[34],0.073
same,glycan array binding signal (z-score),[35],0.151
same,glycan array binding signal (z-score),[36],0.014
same,glycan array binding signal (z-score),[37],-0.278
same,glycan array binding signal (z-score),[38],-0.23
same,glycan array binding signal (z-score),Gal(a1-3)Gal(b1-4)Glc,-0.388
